These results are taken from paper PMC9911399, “Two distinct binding modes provide the RNA-binding protein RbFox with extraordinary sequence specificity”.

T1: RBFOX1 RRM RbFoxmut (Fox-RRM*) (Homo sapiens, UniProt Q9NWB1 109-208, R118D;E147R;N151S;E152T)
T1 sequence: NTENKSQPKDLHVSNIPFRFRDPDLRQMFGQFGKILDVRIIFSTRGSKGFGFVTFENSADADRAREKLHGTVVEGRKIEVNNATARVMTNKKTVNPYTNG

B1: UGUUAAC (DNA:RNA)
RNA: GGGAGACCGGAAUUCAGAUUGUCCUGUUAACUUAAAUCCCGUCGUAGCCACCA
DNA 1: CAATCTGAATTCCGGTCTCCC
DNA 2: TGGTGGCTACGACGGGATT
B2: AACUCCU (DNA:RNA)
RNA: B1 RNA with U25A, G26A, U27C, A29C, A30C, C31U
DNA 1: CAATCTGAATTCCGGTCTCCC
DNA 2: TGGTGGCTACGACGGGATT
B3: UAUUAGG (DNA:RNA)
RNA: B1 RNA with G26A, A30G, C31G
DNA 1: CAATCTGAATTCCGGTCTCCC
DNA 2: TGGTGGCTACGACGGGATT
B4: UUUCAGU (DNA:RNA)
RNA: B1 RNA with G26U, U28C, A30G, C31U
DNA 1: CAATCTGAATTCCGGTCTCCC
DNA 2: TGGTGGCTACGACGGGATT
B5: CCAUAUC (DNA:RNA)
RNA: B1 RNA with U25C, G26C, U27A, A30U
DNA 1: CAATCTGAATTCCGGTCTCCC
DNA 2: TGGTGGCTACGACGGGATT
B6: AACAGAA (DNA:RNA)
RNA: B1 RNA with U25A, G26A, U27C, U28A, A29G, C31A
DNA 1: CAATCTGAATTCCGGTCTCCC
DNA 2: TGGTGGCTACGACGGGATT
B7: AUCAAUU (DNA:RNA)
RNA: B1 RNA with U25A, G26U, U27C, U28A, A30U, C31U
DNA 1: CAATCTGAATTCCGGTCTCCC
DNA 2: TGGTGGCTACGACGGGATT
B8: GAGCAAG (DNA:RNA)
RNA: B1 RNA with U25G, G26A, U27G, U28C, C31G
DNA 1: CAATCTGAATTCCGGTCTCCC
DNA 2: TGGTGGCTACGACGGGATT
B9: UGGGGGA (DNA:RNA)
RNA: B1 RNA with U27G, U28G, A29G, A30G, C31A
DNA 1: CAATCTGAATTCCGGTCTCCC
DNA 2: TGGTGGCTACGACGGGATT
B10: UGUGCAU (DNA:RNA)
RNA: B1 RNA with U28G, A29C, C31U
DNA 1: CAATCTGAATTCCGGTCTCCC
DNA 2: TGGTGGCTACGACGGGATT
B11: GCGUACU (DNA:RNA)
RNA: B1 RNA with U25G, G26C, U27G, A30C, C31U
DNA 1: CAATCTGAATTCCGGTCTCCC
DNA 2: TGGTGGCTACGACGGGATT
B12: AAAGAAC (DNA:RNA)
RNA: B1 RNA with U25A, G26A, U27A, U28G
DNA 1: CAATCTGAATTCCGGTCTCCC
DNA 2: TGGTGGCTACGACGGGATT
B13: UAGCUUC (DNA:RNA)
RNA: B1 RNA with G26A, U27G, U28C, A29U, A30U
DNA 1: CAATCTGAATTCCGGTCTCCC
DNA 2: TGGTGGCTACGACGGGATT
B14: GGGGGAA (DNA:RNA)
RNA: B1 RNA with U25G, U27G, U28G, A29G, C31A
DNA 1: CAATCTGAATTCCGGTCTCCC
DNA 2: TGGTGGCTACGACGGGATT
B15: UCAGGUA (DNA:RNA)
RNA: B1 RNA with G26C, U27A, U28G, A29G, A30U, C31A
DNA 1: CAATCTGAATTCCGGTCTCCC
DNA 2: TGGTGGCTACGACGGGATT
B16: CGGAAAG (DNA:RNA)
RNA: B1 RNA with U25C, U27G, U28A, C31G
DNA 1: CAATCTGAATTCCGGTCTCCC
DNA 2: TGGTGGCTACGACGGGATT
B17: GCUUUCC (DNA:RNA)
RNA: B1 RNA with U25G, G26C, A29U, A30C
DNA 1: CAATCTGAATTCCGGTCTCCC
DNA 2: TGGTGGCTACGACGGGATT
B18: GACCGUU (DNA:RNA)
RNA: GGGAGACCGGAAUUCAGAUUGUCCGACCGUUUUAAAUCCCGUCGUAGCCACCA
DNA 1: CAATCTGAATTCCGGTCTCCC
DNA 2: TGGTGGCTACGACGGGATT
B19: UUUACAC (DNA:RNA)
RNA: B1 RNA with G26U, U28A, A29C
DNA 1: CAATCTGAATTCCGGTCTCCC
DNA 2: TGGTGGCTACGACGGGATT
B20: GGGAUAU (DNA:RNA)
RNA: B18 RNA with A26G, C27G, C28A, G29U, U30A
DNA 1: CAATCTGAATTCCGGTCTCCC
DNA 2: TGGTGGCTACGACGGGATT
B21: UCGGAGC (DNA:RNA)
RNA: B1 RNA with G26C, U27G, U28G, A30G
DNA 1: CAATCTGAATTCCGGTCTCCC
DNA 2: TGGTGGCTACGACGGGATT
B22: ACACUCU (DNA:RNA)
RNA: B18 RNA with G25A, A26C, C27A, G29U, U30C
DNA 1: CAATCTGAATTCCGGTCTCCC
DNA 2: TGGTGGCTACGACGGGATT
B23: UCACUAG (DNA:RNA)
RNA: B1 RNA with G26C, U27A, U28C, A29U, C31G
DNA 1: CAATCTGAATTCCGGTCTCCC
DNA 2: TGGTGGCTACGACGGGATT
B24: AGCAAUC (DNA:RNA)
RNA: B1 RNA with U25A, U27C, U28A, A30U
DNA 1: CAATCTGAATTCCGGTCTCCC
DNA 2: TGGTGGCTACGACGGGATT
B25: UAUUAUC (DNA:RNA)
RNA: B1 RNA with G26A, A30U
DNA 1: CAATCTGAATTCCGGTCTCCC
DNA 2: TGGTGGCTACGACGGGATT
B26: UUGAAAA (DNA:RNA)
RNA: B1 RNA with G26U, U27G, U28A, C31A
DNA 1: CAATCTGAATTCCGGTCTCCC
DNA 2: TGGTGGCTACGACGGGATT
B27: UUGUAUU (DNA:RNA)
RNA: B1 RNA with G26U, U27G, A30U, C31U
DNA 1: CAATCTGAATTCCGGTCTCCC
DNA 2: TGGTGGCTACGACGGGATT
B28: CGACAUU (DNA:RNA)
RNA: B18 RNA with G25C, A26G, C27A, G29A
DNA 1: CAATCTGAATTCCGGTCTCCC
DNA 2: TGGTGGCTACGACGGGATT
B29: AGAUGGG (DNA:RNA)
RNA: B1 RNA with U25A, U27A, A29G, A30G, C31G
DNA 1: CAATCTGAATTCCGGTCTCCC
DNA 2: TGGTGGCTACGACGGGATT
B30: UGCCCCC (DNA:RNA)
RNA: B1 RNA with U27C, U28C, A29C, A30C
DNA 1: CAATCTGAATTCCGGTCTCCC
DNA 2: TGGTGGCTACGACGGGATT
B31: AUCUACA (DNA:RNA)
RNA: B1 RNA with U25A, G26U, U27C, A30C, C31A
DNA 1: CAATCTGAATTCCGGTCTCCC
DNA 2: TGGTGGCTACGACGGGATT

Positions count from the first letter of the chain named. The list shows a part of the results.

This test has as its target T1, RBFOX1 RRM RbFoxmut (Fox-RRM*). Kind of test: EMSA; HiTS-Eq, 1 nM pool, 10 min; buffer printed only for the single-RNA assays: 10 mM Tris pH 7.5, 150 mM NaCl, 3.4 mM EDTA, 0.001% NP-40, 30 C. The conditions noted are these: tags: His6 N-terminal (pET28a); label: 5' 32P. The essentials: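 Purified RbFox RRM (wild type or mutant) was equilibrated for 10 min in 50 µL with 1 nM of a 5′-radiolabelled pool of RNA with 7 randomized nucleotides, its flanks annealed to DNA oligonucleotides, across increasing protein concentrations. Free RNA was separated by 8% native PAGE, excised, reverse-transcribed, PCR-barcoded and sequenced on an Illumina HiSeq 2500. Relative association constants came from read-count changes of each variant against the control reaction, normalised to the cognate motif.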
On the technique in general: Mobility shift assays separate free from complexed probe on a gel.
Turning to B1, the binding signal is 0.083 KA relative to UGCAUGU.
With B2, the binding signal is 0.0436 KA relative to UGCAUGU.
For B3 the value was 0.0764 KA relative to UGCAUGU; for B4, 0.0662 KA relative to UGCAUGU; for B5, 0.044 KA relative to UGCAUGU.
Regarding B6, the binding signal is 0.101 KA relative to UGCAUGU.
For B7 the value was 0.0727 KA relative to UGCAUGU; for B8, 0.106 KA relative to UGCAUGU.
For B9 the value was 0.102 KA relative to UGCAUGU; for B10, 0.126 KA relative to UGCAUGU; for B11, 0.0925 KA relative to UGCAUGU.
As for B12, the figure is 0.0751 KA relative to UGCAUGU.
With B13, the binding signal is 0.0917 KA relative to UGCAUGU.
As for B14, the figure is 0.106 KA relative to UGCAUGU; as for B15, 0.144 KA relative to UGCAUGU.
For B16 the value was 0.0875 KA relative to UGCAUGU; for B17, 0.0363 KA relative to UGCAUGU.
For B18 the value was 0.0865 KA relative to UGCAUGU; for B19, 0.0885 KA relative to UGCAUGU.
Consider B20, for which the binding signal is 0.118 KA relative to UGCAUGU.
On to B21, for which the binding signal is 0.0837 KA relative to UGCAUGU.
On to B22, for which the binding signal was 0.0498 KA relative to UGCAUGU.
As for B23, the binding signal is 0.108 KA relative to UGCAUGU.
For B24 the value was 0.0409 KA relative to UGCAUGU.
For B25, the binding signal was 0.0758 KA relative to UGCAUGU.
For B26 the value was 0.0828 KA relative to UGCAUGU; for B27, 0.171 KA relative to UGCAUGU; for B28, 0.0528 KA relative to UGCAUGU.
For B29 the value was 0.0684 KA relative to UGCAUGU; for B30, 0.0484 KA relative to UGCAUGU.
For B31 the value was 0.0989 KA relative to UGCAUGU.
